The supplement of paper PMC4604168 (melanoma cell lines)
Some of the results follow. Single values are uncertain, as repeats are few or missing.

How the values were obtained:
Assay in all cases: cell count relative to DMSO control; melanoma cells; higher = more viable cells
Conditions in all cases: library dose: standard library concentration; 72 h
SkMel28 = system: SkMel28
SkMel2 = system: SkMel2
SkMel30 = system: SkMel30
SkMel5 = system: SkMel5
UACC257 = system: UACC257
UACC62 = system: UACC62
WM115 = system: WM115
WM1716 = system: WM1716
WM1745 = system: WM1745
WM3526 = system: WM3526
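Note: cells treated in 1,536-well plates, then fixed and DAPI-stained, with nuclei counted from automated high-throughput microscope images.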

SMILES | cell count (SkMel28) | cell count (SkMel2) | cell count (SkMel30) | cell count (SkMel5) | cell count (UACC257) | cell count (UACC62) | cell count (WM115) | cell count (WM1716) | cell count (WM1745) | cell count (WM3526)
CN(c1ncccc1CNc1nc(Nc2ccc3c(c2)CC(=O)N3)ncc1C(F)(F)F)S(C)(=O)=O + Cn1nnc2c(C(N)=O)ncn2c1=O [temozolomide] (first compound 0.4 µM, partner dose 10 µM) | 32.5% | 71.4% | 71% | 69.6% | 80.9% | 56.2% | 74.5% | 50.1% | 75.2% | 89.7%
CCCS(=O)(=O)Nc1ccc(F)c(C(=O)c2c[nH]c3ncc(Cl)cc23)c1F + CN(C)S(=O)(=O)c1ccc2c(c1)/C(=C/c1cc3c([nH]1)CCCC3)C(=O)N2 [SU6656] (first compound 0.4 µM, partner dose 2 µM) | 48.6% | 78.1% | 78.4% | 58.7% | 79.5% | 45.7% | 53.2% | 52.1% | 53.3% | 55.5%
C=C(c1ccc(C(=O)O)cc1)c1cc2c(cc1C)C(C)(C)CCC2(C)C [Bexarotene] + O=C(Nc1cccc(Cl)c1)Nc1ncc(CCNc2ncnc3ccsc23)s1 [SNS314] (first compound 10 µM, partner dose 0.004 µM) | 54.4% | 69.5% | 98.7% | 79.2% | 78.6% | 100% | 60.3% | 50.8% | 65.8% | 67.8%
C=C(c1ccc(C(=O)O)cc1)c1cc2c(cc1C)C(C)(C)CCC2(C)C [Bexarotene] + Cc1cc(N2CCOCC2)cc2[nH]c(-c3c(NC[C@@H](O)c4cccc(Cl)c4)cc[nH]c3=O)nc12 [BMS536924] (first compound 10 µM, partner dose 1 µM) | 107% | 97.8% | 101% | 95.3% | 89.9% | 97% | 112% | 96.4% | 57.2% | 77%
C=C(c1ccc(C(=O)O)cc1)c1cc2c(cc1C)C(C)(C)CCC2(C)C [Bexarotene] + CCCS(=O)(=O)Nc1ccc(F)c(C(=O)c2c[nH]c3ncc(Cl)cc23)c1F [PLX4720] (first compound 10 µM, partner dose 0.4 µM) | 45.2% | 78.5% | 86.8% | 76.2% | 80.6% | 50.9% | 82.3% | 70.7% | 88.5% | 43.5%
CS(=O)(=O)c1ccc(C(=O)Nc2ccc(Cl)c(-c3ccccn3)c2)c(Cl)c1 [vismodegib] + COCC[n+]1c2c(n(Cc3cnccn3)c1C)C(=O)c1ccccc1C2=O [YM155] (first compound 5 µM, partner dose 0.002 µM) | 60.2% | 68.1% | 73.5% | 35.1% | 23.7% | 53.3% | 68.9% | 62.5% | 83.9% | 44.3%
CCCS(=O)(=O)Nc1ccc(F)c(C(=O)c2c[nH]c3ncc(Cl)cc23)c1F + CO[C@@H]1[C@H](N(C)C(=O)c2ccccc2)C[C@H]2O[C@]1(C)n1c3ccccc3c3c4c(c5c6ccccc6n2c5c31)C(=O)NC4 [Midostaurin] (first compound 0.4 µM, partner dose 0.4 µM) | 72% | 59.7% | 78.4% | 77.9% | 90.8% | 65.6% | 55.6% | 54.3% | 42.3% | 83.8%
C=C(c1ccc(C(=O)O)cc1)c1cc2c(cc1C)C(C)(C)CCC2(C)C [Bexarotene] + C=CCNC1=C2C[C@@H](C)C[C@H](OC)[C@H](O)[C@@H](C)/C=C(\C)[C@H](OC(N)=O)[C@@H](OC)/C=C\C=C(/C)C(=O)NC(=CC1=O)C2=O [Tanespimycin] (first compound 10 µM, partner dose 0.01 µM) | 64.1% | 77.8% | 98.9% | 59.7% | 73.4% | 58.4% | 34% | 67.2% | 45.4% | 66.2%
NC1(c2ccc(-c3nc4ccn5c(=O)[nH]nc5c4cc3-c3ccccc3)cc2)CCC1 + C=C(c1ccc(C(=O)O)cc1)c1cc2c(cc1C)C(C)(C)CCC2(C)C [Bexarotene] (first compound 2 µM, partner dose 10 µM) | 57.2% | 73.5% | 88.5% | 84.2% | 84.3% | 70.9% | 85.8% | 61.3% | 90.1% | 57.2%
CS(=O)(=O)c1ccc(C(=O)Nc2ccc(Cl)c(-c3ccccn3)c2)c(Cl)c1 [vismodegib] + C=C(c1ccc(C(=O)O)cc1)c1cc2c(cc1C)C(C)(C)CCC2(C)C [Bexarotene] (first compound 5 µM, partner dose 10 µM) | 71.6% | 67.8% | 106% | 85% | 76.4% | 67.4% | 106% | 80.2% | 135% | 60.4%
CS(=O)(=O)c1ccc(C(=O)Nc2ccc(Cl)c(-c3ccccn3)c2)c(Cl)c1 [vismodegib] + C=CCNC1=C2C[C@@H](C)C[C@H](OC)[C@H](O)[C@@H](C)/C=C(\C)[C@H](OC(N)=O)[C@@H](OC)/C=C\C=C(/C)C(=O)NC(=CC1=O)C2=O [Tanespimycin] (first compound 5 µM, partner dose 0.01 µM) | 62.9% | 89.4% | 103% | 76.3% | 97.7% | 45.1% | 33.7% | 71.6% | 64.2% | 84.7%
NC1(c2ccc(-c3nc4ccn5c(=O)[nH]nc5c4cc3-c3ccccc3)cc2)CCC1 + COc1ccc(Cl)c(Nc2nc3ccccc3nc2NS(=O)(=O)c2cccc(NC(=O)C(C)(C)N)c2)c1 [XL147] (first compound 2 µM, partner dose 4 µM) | 47.6% | 65.3% | 76.7% | 60.7% | 83.1% | 80% | 67.7% | 70.7% | 93.1% | 63.8%
C=C(c1ccc(C(=O)O)cc1)c1cc2c(cc1C)C(C)(C)CCC2(C)C [Bexarotene] + C#Cc1cccc(Nc2ncnc3cc(OCCOC)c(OCCOC)cc23)c1 [erlotinib] (first compound 10 µM, partner dose 4 µM) | 68.3% | 80.3% | 73.9% | 60.6% | 84.2% | 49.4% | 84.2% | 66.7% | 72% | 67.2%
CCCS(=O)(=O)Nc1ccc(F)c(C(=O)c2c[nH]c3ncc(Cl)cc23)c1F + Cn1c(Nc2ccc(C(F)(F)F)cc2)nc2cc(Oc3ccnc(-c4ncc(C(F)(F)F)[nH]4)c3)ccc21 [CHIR265] (first compound 0.4 µM, partner dose 0.4 µM) | 31.4% | 56.4% | 76.1% | 34.8% | 78.8% | 60.1% | 41% | 69.5% | 54.9% | 40.8%
NC1(c2ccc(-c3nc4ccn5c(=O)[nH]nc5c4cc3-c3ccccc3)cc2)CCC1 + COCC[n+]1c2c(n(Cc3cnccn3)c1C)C(=O)c1ccccc1C2=O [YM155] (first compound 2 µM, partner dose 0.002 µM) | 18.4% | 22% | 62.8% | 26.1% | 18% | 53.6% | 45.2% | 46.3% | 78.1% | 32.8%
NC1(c2ccc(-c3nc4ccn5c(=O)[nH]nc5c4cc3-c3ccccc3)cc2)CCC1 + O=C(CCCCCCC(=O)Nc1ccccc1)NO [vorinostat] (first compound 2 µM, partner dose 0.4 µM) | 38.8% | 56.3% | 73.1% | 80.6% | 55.2% | 77.5% | 78.5% | 77% | 86.5% | 65.9%
CN(c1ncccc1CNc1nc(Nc2ccc3c(c2)CC(=O)N3)ncc1C(F)(F)F)S(C)(=O)=O + CS(=O)(=O)CCNCc1ccc(-c2ccc3ncnc(Nc4ccc(OCc5cccc(F)c5)c(Cl)c4)c3c2)o1 [lapatinib] (first compound 0.4 µM, partner dose 4 µM) | 65.7% | 68.2% | 91% | 37.7% | 70.5% | 35.9% | 77.1% | 64.8% | 44.2% | 64.4%
CCCS(=O)(=O)Nc1ccc(F)c(C(=O)c2c[nH]c3ncc(Cl)cc23)c1F + C[C@@H]1CCN(C(=O)CC#N)C[C@@H]1N(C)c1ncnc2[nH]ccc12 [CP690550] (first compound 0.4 µM, partner dose 5 µM) | 40.1% | 86.4% | 95.9% | 63% | 76.6% | 72.6% | 56.3% | 64.6% | 52.3% | 48.3%
CN(c1ncccc1CNc1nc(Nc2ccc3c(c2)CC(=O)N3)ncc1C(F)(F)F)S(C)(=O)=O + C=CCNC1=C2C[C@@H](C)C[C@H](OC)[C@H](O)[C@@H](C)/C=C(\C)[C@H](OC(N)=O)[C@@H](OC)/C=C\C=C(/C)C(=O)NC(=CC1=O)C2=O [Tanespimycin] (first compound 0.4 µM, partner dose 0.01 µM) | 58.7% | 68.6% | 97.8% | 54.8% | 80.7% | 57.2% | 35.1% | 69.2% | 39.5% | 91.1%
CS(=O)(=O)c1ccc(C(=O)Nc2ccc(Cl)c(-c3ccccn3)c2)c(Cl)c1 [vismodegib] + O=C(O)c1ccc(-c2c[nH]c3ncc(-c4ccccc4)cc23)cc1C1CCCC1 [GSK650394] (first compound 5 µM, partner dose 0.8 µM) | 115% | 75.7% | 113% | 77.6% | 79.3% | 84.6% | 95.9% | 87.3% | 76.7% | 76.4%
C=C(c1ccc(C(=O)O)cc1)c1cc2c(cc1C)C(C)(C)CCC2(C)C [Bexarotene] + COc1ccc(Cl)c(Nc2nc3ccccc3nc2NS(=O)(=O)c2cccc(NC(=O)C(C)(C)N)c2)c1 [XL147] (first compound 10 µM, partner dose 4 µM) | 88.2% | 95.8% | 106% | 84.7% | 65.5% | 89.6% | 92.4% | 85.8% | 79.1% | 94.9%
